Data taken from PubChem BioAssay AID1030 (National Center for Advancing Translational Sciences (NCATS), 2008).
Screen size: about 220,000 compounds; about 16,000 (7.3%) were called active. The shares of active, inactive and inconclusive entries below differ from those in the screen. Calls follow the shape of the dose curve; as a rule, active = well fitted inhibition curve with a large enough effect (not every such curve was filed as active); inconclusive = small, poorly fitted or top-dose-only effect, or another doubt; inactive = no such curve, though single readings can be large or run the other way. Potencies beside an inconclusive call are fits to weak or partial responses and may not hold up.

molecular target: Aldehyde dehydrogenase 1A1 (Homo sapiens) (UniProt P00352); assay: qHTS Assay for Inhibitors of Aldehyde Dehydrogenase 1 (ALDH1A1); settings: Purified ALDH1A1, NADH fluorescence, propionaldehyde substrate; series mostly up to 75.3 µM;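 as to activity, negative = inhibition: plate controls were no enzyme wells and a reference inhibitor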
Potency is read from the fitted curve at half-maximal effect; tags tell the direction and shape of the fitted curve.

UniProt P00352, sequence (P00352 whole entry, looked up): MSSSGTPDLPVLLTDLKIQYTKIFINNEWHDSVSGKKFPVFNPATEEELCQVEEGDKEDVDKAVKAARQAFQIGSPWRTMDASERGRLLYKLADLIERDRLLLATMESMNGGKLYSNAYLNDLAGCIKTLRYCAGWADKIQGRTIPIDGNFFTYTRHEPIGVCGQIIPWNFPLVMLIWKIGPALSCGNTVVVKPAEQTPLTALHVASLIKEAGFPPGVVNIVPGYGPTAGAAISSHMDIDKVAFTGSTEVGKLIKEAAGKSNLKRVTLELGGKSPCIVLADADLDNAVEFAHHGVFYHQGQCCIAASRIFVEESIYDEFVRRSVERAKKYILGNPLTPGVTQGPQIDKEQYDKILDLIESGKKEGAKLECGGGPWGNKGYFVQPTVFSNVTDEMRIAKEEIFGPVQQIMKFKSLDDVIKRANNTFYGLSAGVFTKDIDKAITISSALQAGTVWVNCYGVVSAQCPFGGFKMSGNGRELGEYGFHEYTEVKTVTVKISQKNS

Potency, inactive:
CCN(CC)S(=O)(=O)c1cccc(C(=O)Nc2ccccc2)c1
Cc1cc(C)cc(S(=O)(=O)c2cnc3ccccc3n2)c1
c1ccc(N2CCN(Cc3cn4ccccc4n3)CC2)cc1
Fc1ccccc1Nc1nc2c(s1)CCc1ccccc1-2
COCCN(C(=O)CNC(=O)c1ccco1)C(C(=O)NC1CCCCC1)c1cccs1 (centres undefined)
O=C(NC(=S)Nc1cccc(Cl)c1N1CCCCC1)c1cccs1
C=CCN1C(=O)C(CC(=O)O)SC1=Nc1ccc(C)cc1 (centres undefined)
CN1CCN(/N=C/c2nc(-c3ccccc3Cl)n3ccccc23)CC1
NC(=O)NC(=O)CSc1nnc(-c2ccco2)n1Cc1ccccc1
COc1cccc(CN2CCNC(=O)C2CC(=O)N(C)CCc2ccccn2)c1 (centres undefined)
O=C(C1CCN(S(=O)(=O)c2cnc[nH]2)CC1)N(CCc1ccccc1)Cc1ccccc1
CNC(=O)CSCc1c(Cl)cccc1Cl
CC1CCOC2(O1)C(=O)N(CN1CCN(c3ccccc3F)CC1)c1ccccc12 (centres undefined)
CCCn1c(C)nc2c(N3CCC(N4CCN(C)CC4)CC3)nc(C)nc21
CCn1cc(C(=O)N2CCc3ccccc32)c(=O)c2cc(S(=O)(=O)N3CC(C)CC(C)C3)ccc21 (centres undefined)
COc1cccc(NC(=O)CSCC(=O)O)c1
O=C(Nc1cc2c(cc1Cl)OCCCO2)c1ccccc1
Cc1nn(-c2ccccc2)nc1C(N)=O

Potency, inconclusive:
CCOc1ccc(-n2nc3c(=O)[nH]nc(C)c3c2C)cc1 39.8 µM [inhibitor, single point]
CN(CCOC(=O)c1ccco1)Cc1ccccc1 39.8 µM [inhibitor, single point]
Cc1cccc(Cn2c(NCCO)nc3c2c(=O)n(C)c(=O)n3C)c1 39.8 µM [inhibitor, single point]
CCN(CC)C(=O)CSc1nc(N)c(C#N)c(-c2cccs2)c1C#N 28.2 µM [inhibitor, partial curve]
CCN(CC(=O)Nc1c(C(=O)OC)[nH]c2ccccc12)c1ccc2c(c1)OCO2 39.8 µM [inhibitor, single point]
NNC(=O)c1sc2cc(C(F)(F)F)cnc2c1-c1cccnc1 37.7 µM [inhibitor, single point]
COC(=O)c1cc2ccccc2c(-c2c(OC)c(C(=O)OC)cc3ccccc23)c1OC 35.5 µM [inhibitor, single point]
C=CCn1c(SCC(=O)Nc2ccc3c(c2)OCO3)nc2ccccc2c1=O 11.2 µM [inhibitor, partial curve]
COc1cc2c(C(=O)NCc3ccccn3)cn(CC(C)C)c(=O)c2cc1OC 15.8 µM [inhibitor, partial curve]
COc1ccc(C(C(=O)NC(C)(C)C)N(Cc2cccs2)C(=O)CCC(=O)Nc2cc(C)on2)cc1 (centres undefined) 17.8 µM [inhibitor, partial curve, poor fit]
COc1ccc(NC(=O)C(C)N2c3cccc4cccc(c34)S2(=O)=O)cc1 (centres undefined) 28.2 µM [inhibitor, partial curve]
COc1cc(/C=C/C(=O)OCC(=O)NCC2CCCO2)ccc1OCC#N (centres undefined) 39.8 µM [inhibitor, single point]
O=C(/C=C/c1ccc2c(c1)OCO2)NCC1CCCO1 (centres undefined) 39.8 µM [inhibitor, single point]
CCc1c(C)c2ccc(OCC(=O)OC)cc2oc1=O 31.6 µM [inhibitor, partial curve]
CCc1nnc(NC(=O)CSc2ncc(-c3ccccc3)n2C)s1 31.6 µM [inhibitor, single point]
C=COC(=O)CSc1nc(-c2cccs2)ccc1C#N 35.5 µM [inhibitor, single point]
COc1ccc(O)c(/C=C(\C#N)C(=O)Nc2cccnc2)c1 39.8 µM [inhibitor, single point]
Cn1nnnc1SCC(=O)Nc1ccc(S(=O)(=O)N2CCOCC2)cc1 28.2 µM [inhibitor, single point]
CCOC(=O)c1cc2c(ccc3ccccc32)oc1=O 31.6 µM [inhibitor, partial curve]
O=C(CCCSc1ccccc1)Nc1nc(-c2ccccn2)cs1 25.1 µM [inhibitor, single point]
[O-]/C(=C(\C(=S)Nc1cccc2ccccc12)[n+]1ccccc1)c1ccc(Cl)s1 5.01 µM [inhibitor, partial curve]
Cc1nc(N2CCOCC2)c2nc(-c3ccccc3)n(CCN3CCCCC3)c2n1 7.94 µM [inhibitor, full curve]
Cc1nc2c3ccccc3n(Cc3ccccc3F)c2s1 39.8 µM [inhibitor, single point]
O=C(Cc1ccc(Cl)cc1)NC(=S)Nc1ccccc1N1CCOCC1 37.7 µM [inhibitor, single point]
CN1C2=CC=CC=CC2=[N+](C)C12C=CC(=[N+]([O-])[O-])C=C2[N+](=O)[O-] (centres undefined) 39.8 µM [inhibitor, single point]

Potency, active:
O=C(O)/C(=C\c1cccc([N+](=O)[O-])c1)c1ccc(S(=O)(=O)N2CCCCC2)s1 3.98 µM
CC(C)C[C@H](N)c1nnc(S(=O)(=O)Cc2cccc(F)c2)o1 12.6 µM
CCOC(=O)C(C(=O)OCC)c1cc(Br)c2noc3c2c1C(=O)c1ccccc1-3 10 µM
O=C(O)CC(SCC(=O)Nc1ccc(S(=O)(=O)N2CCCC2)cc1)C(=O)O (centres undefined) 8.91 µM
COc1ccc(S(=O)(=O)N(CCc2ccccc2)CC(N)=O)cc1 7.94 µM

activity, negative = inhibition, inactive:
NC(N)=NC(N)=Nc1ccc(S(=O)(=O)O)cc1 6.81% [at 13.5 µM]
